# Data from a collection of fitness landscapes (doi:10.1016/j.celrep.2020.107928).
# The full ranking holds about 81,000 sequences; the median of “one-hybrid fitness for binding parS DNA” is about -0.17, and the highest 2% start at about 0.51. The list shows a part of the results.
# B1: Caulobacter ParB omega fusion; a variant is named by its letters at X, in order, B8GW30 (parent)
# chain: MESVVVGEPGMSEGRRGLGRGLSALLGEVDAAPAQAPGEQLGGSREAPIEILQRNPDQPRRTFREEDLEDLSNSIREKGVLQPILVRPSPDTAGEYQIVAGERAWRAAQRAGLKTVPIMVRELDDLAVLEIGIIENVQRADLNVLEEALSYKVLMEKFERTQENIAQTIGKSXSHVANXMRLLXLPDEVQSYLVSGELTAXHARAIAAAADPVALAKQIIEGGLSVRETEALARKAPNLSAGKSKGGRPPRVKDTDTQALESDLSSVLGLDVSIDHRGSTGTLTITYATLEQLDDLCNRLTRGI
# Variants of: B1
# Test: one-hybrid fitness for binding parS DNA (scaled: cognate 1, non-cognate 0); higher = stronger binding
# Settings: with parS DNA site
# Method in brief: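 Caulobacter ParB libraries with four specificity codons randomised were screened by bacterial one-hybrid selection in the E. coli USO strain, using a HIS3 reporter whose site lies 19 bp from the promoter. Selection ran for 48 hours at 37°C on M9 lacking histidine, with 0.1 mM IPTG and 5 mM 3-AT. Plasmids were Illumina-sequenced before and after selection, three replicate libraries were pooled, and variants with under 10 reads were dropped. Fitness is the log change in each variant's read ratio to wild type, rescaled against the cognate and non-cognate sites.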
row,Variant,one-hybrid fitness for binding parS DNA
1,SVDW,≤ 0.2
2,QTGS,≤ 0.2
3,PPKH,≤ 0.2
4,PSQY,≤ 0.2
5,CNTH,≤ 0.2
6,LITH,≤ 0.2
7,WAPH,≤ 0.2
8,LIYP,≤ 0.2
9,KWSV,≤ 0.2
10,HTPF,≤ 0.2
11,HNIS,≤ 0.2
12,PIWY,≤ 0.2
13,IIPI,≤ 0.2
14,WVYG,≤ 0.2
15,SSDA,≤ 0.2
16,RCIY,0.448
17,MYMW,≤ 0.2
18,HFNA,≤ 0.2
19,DLIR,≤ 0.2
20,FLGA,≤ 0.2
21,SCSR,≤ 0.2
22,SRRR,≤ 0.2
23,KNQR,≤ 0.2
24,HQKI,≤ 0.2
25,NRTT,≤ 0.2
26,LSDC,≤ 0.2

row,Variant,one-hybrid fitness for binding parS DNA
1,NPIV,≤ 0.2
2,HAFR,≤ 0.2
3,VIMI,≤ 0.2
4,ARNL,≤ 0.2
5,KAFV,≤ 0.2
6,QHWY,≤ 0.2
7,MPQH,≤ 0.2
8,EDTG,≤ 0.2
9,TTEP,≤ 0.2
10,QVGT,≤ 0.2
11,RWHW,≤ 0.2
12,AHAR,≤ 0.2
13,NGHK,≤ 0.2
14,ARIG,≤ 0.2
15,APET,≤ 0.2
16,KRHR,≤ 0.2
17,WVMS,≤ 0.2
18,TTWI,≤ 0.2
19,FHFL,≤ 0.2
20,GTMC,≤ 0.2
21,QEVD,≤ 0.2
22,FCFS,≤ 0.2
23,TQDG,≤ 0.2
24,HVPE,≤ 0.2
25,KVHT,≤ 0.2
26,LFER,≤ 0.2

row,Variant,one-hybrid fitness for binding parS DNA
1,REVG,≤ 0.2
2,DAND,≤ 0.2
3,ACRV,≤ 0.2
4,TFHQ,≤ 0.2
5,GWIP,≤ 0.2
6,CKAR,≤ 0.2
7,YCKT,≤ 0.2
8,GAQC,≤ 0.2
9,GLTF,≤ 0.2
10,RICW,≤ 0.2
11,RHMR,≤ 0.2
12,YPWT,≤ 0.2
13,RMGG,0.993
14,KLLL,≤ 0.2
15,MQIT,0.223
16,EEKR,≤ 0.2
17,RVVC,0.914
18,TKRM,≤ 0.2
19,RIPK,≤ 0.2
20,QDAY,≤ 0.2
21,SFHS,≤ 0.2
22,RSKA,0.716
23,VRGS,≤ 0.2
24,QNYG,≤ 0.2
25,LIIH,≤ 0.2
26,CNPG,≤ 0.2

row,Variant,one-hybrid fitness for binding parS DNA
1,PPKT,≤ 0.2
2,PHPT,≤ 0.2
3,GPWR,≤ 0.2
4,DSLV,≤ 0.2
5,DKSS,≤ 0.2
6,GHPD,≤ 0.2
7,KRQI,≤ 0.2
8,FTKS,≤ 0.2
9,DDWY,≤ 0.2
10,RQRS,0.918
11,RIYM,0.377
12,NWPF,≤ 0.2
13,NLTL,≤ 0.2
14,VFHC,≤ 0.2
15,ASLT,≤ 0.2
16,RWEE,≤ 0.2
17,IANI,≤ 0.2
18,EHGS,≤ 0.2
19,AAFV,≤ 0.2
20,ESTR,≤ 0.2
21,FSTV,≤ 0.2
22,LAPN,≤ 0.2
23,ENAL,≤ 0.2
24,MQLS,≤ 0.2
25,NVSE,≤ 0.2
26,YQTG,≤ 0.2

row,Variant,one-hybrid fitness for binding parS DNA
1,LSIS,≤ 0.2
2,WKIM,≤ 0.2
3,AGFA,≤ 0.2
4,YNMT,≤ 0.2
5,WISV,≤ 0.2
6,RMHY,0.465
7,DNPF,≤ 0.2
8,TQKL,≤ 0.2
9,RQRL,≤ 0.2
10,QQQA,≤ 0.2
11,TMSE,≤ 0.2
12,KRFV,≤ 0.2
13,NVNV,≤ 0.2
14,APAQ,≤ 0.2
15,HWTT,≤ 0.2
16,WACY,≤ 0.2
17,CHFT,≤ 0.2
18,LHES,≤ 0.2
19,WRMS,≤ 0.2
20,GNPS,≤ 0.2
21,LYSV,≤ 0.2
22,SYAV,≤ 0.2
23,PVNC,≤ 0.2
24,QYFG,0.2
25,RPHC,≤ 0.2
26,NFHR,≤ 0.2

row,Variant,one-hybrid fitness for binding parS DNA
1,VCLT,≤ 0.2
2,FCHG,≤ 0.2
3,ISWR,≤ 0.2
4,KLDM,≤ 0.2
5,RIDP,≤ 0.2
6,PAER,≤ 0.2
7,TIKI,≤ 0.2
8,IPHQ,≤ 0.2
9,DSDM,≤ 0.2
10,RHIP,≤ 0.2
11,WKNG,≤ 0.2
12,TDAS,≤ 0.2
13,YDIS,≤ 0.2
14,LKRL,≤ 0.2
15,FVTL,≤ 0.2
16,GPEP,≤ 0.2
17,CCRR,≤ 0.2
18,RSVL,≤ 0.2
19,QIQK,≤ 0.2
20,HYMT,≤ 0.2
21,RLVH,0.223
22,RNNS,0.969
23,WPTS,≤ 0.2
